SMILES strings stand for the structures. Among all 110,000 compounds or so, about 230 (0.21%) showed an effect of 50% or more. Some of the results follow.
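Note: 30 min substrate incubation versus DMSO and 10 µM JCP410 controls.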

The target of this experiment is DPAP1 (Plasmodium falciparum, UniProt Q8IIJ9). Nature of the experiment: primary screen, percent inhibition; read by cleavage of a fluorogenic dipeptide substrate; higher = more effect of the substance. Also noted: species or system P. falciparum D10 trophozoite lysates; single well.
Chain of DPAP1 (Q8IIJ9 whole entry, looked up): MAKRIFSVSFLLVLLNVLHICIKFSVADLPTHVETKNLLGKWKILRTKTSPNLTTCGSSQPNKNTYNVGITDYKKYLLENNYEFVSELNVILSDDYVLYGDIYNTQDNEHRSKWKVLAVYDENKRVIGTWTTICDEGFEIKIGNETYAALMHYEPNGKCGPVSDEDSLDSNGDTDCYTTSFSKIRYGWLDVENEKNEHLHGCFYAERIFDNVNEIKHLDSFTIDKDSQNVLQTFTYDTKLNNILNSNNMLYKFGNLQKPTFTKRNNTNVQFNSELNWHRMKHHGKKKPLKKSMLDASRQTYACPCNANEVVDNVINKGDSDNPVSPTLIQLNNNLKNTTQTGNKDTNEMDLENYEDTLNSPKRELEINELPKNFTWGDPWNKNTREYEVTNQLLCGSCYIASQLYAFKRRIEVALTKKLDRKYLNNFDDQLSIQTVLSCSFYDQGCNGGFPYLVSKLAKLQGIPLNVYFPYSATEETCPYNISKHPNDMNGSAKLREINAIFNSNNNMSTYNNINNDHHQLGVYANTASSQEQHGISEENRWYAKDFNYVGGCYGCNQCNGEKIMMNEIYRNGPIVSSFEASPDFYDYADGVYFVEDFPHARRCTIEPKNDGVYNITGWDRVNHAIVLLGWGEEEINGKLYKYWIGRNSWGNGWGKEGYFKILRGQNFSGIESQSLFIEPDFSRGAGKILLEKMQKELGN
On to `CC(NC(=O)C(Cc1ccccc1)NS(=O)(=O)c1cccc2nsnc12)c1ccccc1` (centres unmarked), for which the “% Inhibition @ 10 uM” value worked out at 2%.

Take `CC1CN(C(=O)c2ccc(CNS(=O)(=O)c3cccc(Cl)c3)cc2)CC(C)O1` (centres unmarked): the “% Inhibition @ 10 uM” value is reported as -7.28%. Regarding `Cc1c(CNC(=O)Cn2nc(C(F)(F)F)cc2C2CC2)cnn1C`, the “% Inhibition @ 10 uM” value worked out at 1.34%. The value for `COc1cccc(C(=O)Nc2cccc(-c3cn4ccsc4n3)c2)c1` was -2.77%. As for `Cc1cccc(CCNC(=O)c2nc(-c3ccncc3)no2)c1`, the “% Inhibition @ 10 uM” value is -3.8%.

Regarding `CCCC(C)c1c(O)nc(Nc2nc(C)c3cc(OC)ccc3n2)nc1O` (centres unmarked), the “% Inhibition @ 10 uM” value is listed as -0.357%. On to `Cc1ccc(S(=O)(=O)NCc2ccc3[nH]c4c(c3c2)CCCC4)cc1C`, for which the “% Inhibition @ 10 uM” value came out at 7.02%. The value for `O=C(O)CSc1ccc(Cc2ccc(SCC(=O)O)cc2)cc1` was 3.25%. With `O=C(O)C1(S(=O)(=O)c2ccccc2)CC1`, the “% Inhibition @ 10 uM” value is on record as -8.51%.

In the case of `COc1ccc(C2C(C(=O)c3ccccc3)=C(O)C(=O)N2CC2CCCO2)cc1OC` (centres unmarked), the “% Inhibition @ 10 uM” value came to 5.03%. With `CC(C)(C)c1ccc2c(c1)C(=O)N(c1cccc(C(=O)O)c1)C2=O` the figure was -6.24%.

Take `CCOC(=O)c1sc2c(Cl)c(OC)ccc2c1Cl`: the “% Inhibition @ 10 uM” value is recorded as 1.54%.

In the case of `O=C(Cn1ncc2c3ccccc3n(Cc3ccccc3)c2c1=O)N1CCC(N2CCCCC2)CC1`, the “% Inhibition @ 10 uM” value stood at 9.33%. Take `CCN1C(=O)C(CC(=O)Nc2ccc(F)cc2)S/C1=N/c1ccc(Cl)cc1` (centres unmarked): the “% Inhibition @ 10 uM” value is recorded as 4.98%. On to `COc1ccc(CC(=O)Nc2cccc(Cl)c2C)cc1`, for which the “% Inhibition @ 10 uM” value is on record as -2.14%. `O=S(=O)(/N=C(/NC(=S)Nc1ccccc1)c1ccccc1)c1ccccc1`: the “% Inhibition @ 10 uM” value is 0.00784%. In the case of `COc1ccc(-n2nc(C)cc2O)cc1`, the “% Inhibition @ 10 uM” value is recorded as 3.72%. The value for `COc1cc(CN2CCC(Cc3ccccc3)CC2)cc(OC)c1O` was -3.72%; that for `O=C(Nc1ccccc1C(=O)O)c1ccccc1F` was 1.35%; that for `S=c1nc(-c2ccccc2)n(C2CCCCC2)c2c1CCCC2` was -4.8%. Consider `CCCOc1ccc(CNc2ccc(F)cc2)cc1OC`, for which the “% Inhibition @ 10 uM” value is listed as -5.35%. Regarding `O=C(O)c1cnn(-c2ccccc2)c1-n1cccc1CNCCc1ccc(Cl)cc1`, the “% Inhibition @ 10 uM” value is 4.79%. With `CCOc1ccc2nc(N3CCCC(C(=O)NCCc4ccc(S(N)(=O)=O)cc4)C3)sc2c1` (centres unmarked) the figure was 6.46%.

As for `Cc1c(Cl)cccc1NC(=O)C1CCCCC1`, the “% Inhibition @ 10 uM” value is -1.48%.

Turning to `CCOc1cc(/C=C2/SC(=O)NC2=O)ccc1OC(C)CC` (centres unmarked), the “% Inhibition @ 10 uM” value is 5.39%. Consider `Cc1ccc2cc3cc(C(=O)NCCCN4CC(C)CC(C)C4)sc3nc2c1` (centres unmarked), for which the “% Inhibition @ 10 uM” value worked out at 2.55%. The value for `Cc1nn(CC(=O)NCc2ccccn2)c(=O)c2c1sc1ccccc12` was 4.4%. The value for `C=CCOC(=O)C1=C(C)N=C2CCCC(O)=C2C1c1ccc(C(=O)OC)cc1` (centres unmarked) was 2.45%; that for `CSCCCN1CCC(O)(c2ccc(Br)cc2)CC1` was -2.95%; that for `Cc1nn(S(=O)(=O)c2ccccc2)c(C)c1Sc1ccccc1` was -10.2%. As to `CCn1nc(C)c(C(=O)Nc2cc3oc4ccccc4c3cc2OC)c1C`, the “% Inhibition @ 10 uM” value worked out at 1.92%.

Take `Cc1ccc(-c2nc(CSCC(=O)NCC3CCCO3)c(C)o2)cc1` (centres unmarked): the “% Inhibition @ 10 uM” value was -1.05%. For `Cc1cc(F)c(F)cc1C(=O)Nc1cccc(F)c1`, the “% Inhibition @ 10 uM” value is given as -6.08%.

Take `COc1ccc(/C=C/C(=O)Nc2noc3ccccc23)cc1OC`: the “% Inhibition @ 10 uM” value is listed as -4.64%.

On to `CC(C)n1cc(NC(=O)c2cc(-c3ccccc3)on2)cn1`, for which the “% Inhibition @ 10 uM” value amounted to 3.54%.

As to `Nc1no[n+]([O-])c1C(=O)NCc1cccnc1`, the “% Inhibition @ 10 uM” value is -0.403%. On to `CC(C)Nc1nc(Cl)nc(NC2CCCCC2)n1`, for which the “% Inhibition @ 10 uM” value is -2.6%.

As to `CC(C)CNC1CCS(=O)(=O)C1` (centres unmarked), the “% Inhibition @ 10 uM” value was determined as 2.66%.

For `Cc1ccc(/C=C/C(=O)NCCCC(=O)N2CCC(N(C)C(C)C)CC2)cc1`, the “% Inhibition @ 10 uM” value came out at 4.83%. Consider `O=[N+]([O-])c1ccc(Nc2ccc(Br)cc2)nc1`, for which the “% Inhibition @ 10 uM” value is -4.15%. The value for `COc1ccccc1S(=O)Cc1ccc(C(=O)NCCc2ccc(Cl)cc2)o1` (centres unmarked) was -4.96%; that for `COc1ccc(-c2cc(C)no2)cc1S(=O)(=O)N1CCOCC1` was 1.5%. The value for `CC(C)n1cc(/C=C2/NC(=O)N(c3ccccc3)C2=O)c2ccccc21` was 0.316%; that for `CC(=O)N[C@H]1[C@H](Oc2cc(C)ccc2C)O[C@H](CO)[C@@H](O)[C@@H]1O` was -2.45%. The value for `Cc1ccc(CC2(O)CC(C)N(C)CC2C)cc1` (centres unmarked) was 5.66%; that for `Cc1onc(-c2ccccc2Cl)c1C(=O)Nc1ccc(CC#N)cc1` was -1.28%. On to `CC1(C)Cc2c(C#N)c(SCc3ccccc3)nc(N3CCCC3)c2CO1`, for which the “% Inhibition @ 10 uM” value was -7.19%. As to `C=CCN1C(=O)N/C(=C/c2ccc(OC)c(Cl)c2)C1=O`, the “% Inhibition @ 10 uM” value is -10.8%. With `Cc1ccc(NC(=O)CSc2ncnc3sc(C)c(C)c23)cc1` the figure was 1.65%. As to `Fc1ccc(OCCOCCN2CCCC2)cc1`, the “% Inhibition @ 10 uM” value is -7.61%. The value for `COc1cccc(C2C3=C(O)CC(C)(C)CC3=Nc3nn(-c4ccccc4)c(O)c32)c1` (centres unmarked) was -7.38%. In the case of `FC(F)(F)c1ccccc1C1CC(c2cccs2)=NN1c1cccc(Cl)c1` (centres unmarked), the “% Inhibition @ 10 uM” value is -7.02%. With `CCN1CCN(Cc2nc3c(c(=O)n(C)c(=O)n3C)n2CC(=O)c2ccccc2)CC1`, the “% Inhibition @ 10 uM” value was found to be 2%. The value for `O=C(c1cccc(Br)c1)N1CCCC1` was -3.13%. Regarding `CCc1ccc(OCC(=O)N2CCN(c3ccccn3)CC2)c(Br)c1`, the “% Inhibition @ 10 uM” value is recorded as 1.39%. Turning to `CCOC(=O)c1cc2c(=O)n3ccccc3nc2n(C)/c1=N/C(=O)C(C)(C)Oc1ccc(Cl)cc1`, the “% Inhibition @ 10 uM” value is -2.04%. For the molecule `CCOC(=O)C(C(=O)N1CCOCC1)C1CCCCC1` (centres unmarked), the “% Inhibition @ 10 uM” value is reported as -2.42%. For `CCCCNC(=S)N1CCn2cccc2C1c1ccccc1F` (centres unmarked), the “% Inhibition @ 10 uM” value is listed as 4.79%. Consider `O=C1CC(c2ccccc2Cl)Cc2c1cnn2-c1nc2ccccc2[nH]1` (centres unmarked), for which the “% Inhibition @ 10 uM” value is listed as -5.38%.

With `CCOC(=O)c1sc(NC(=O)CSc2nnc(-c3sc(N)nc3C)n2C)nc1C`, the “% Inhibition @ 10 uM” value was -4.94%. As to `CS(=O)(=O)NC(c1ccccc1)c1ccccc1`, the “% Inhibition @ 10 uM” value is given as -4.95%. With `CC(C(=O)NCc1ccco1)N1C(=O)c2ccccc2C1=O` (centres unmarked), the “% Inhibition @ 10 uM” value is on record as -9.24%. As for `O=C(CN1C(=O)S/C(=C/c2cccc(F)c2)C1=O)N1CCOCC1`, the “% Inhibition @ 10 uM” value was 0.206%.

Take `CN(C)CCN(C)Cc1ccc(C(F)(F)F)cc1`: the “% Inhibition @ 10 uM” value is listed as -1.22%. With `CCOC(=O)C1CCN(c2cnccn2)CC1`, the “% Inhibition @ 10 uM” value turned out to be 2.65%. Consider `COc1ccc(NC(=O)NCCN2Cc3ccccc3C2=O)cc1`, for which the “% Inhibition @ 10 uM” value is on record as -1.24%.

With `COc1ccc(C(=O)Nc2sc3c(c2C(N)=O)CCCCC3)cc1OC`, the “% Inhibition @ 10 uM” value turned out to be 3.65%. Regarding `COc1cc(/C=C/C(=O)c2c(O)cc(C)oc2=O)ccc1O`, the “% Inhibition @ 10 uM” value is -2.18%.

For `CC(C)(C)C1CCc2c(sc(NC(=O)c3cccc(Cl)c3)c2C(=O)NCCO)C1` (centres unmarked), the “% Inhibition @ 10 uM” value is listed as -2.24%.

`CCOc1cc(C=C(C#N)C#N)ccc1OCc1cc(=O)n2nc(CC)sc2n1`: the “% Inhibition @ 10 uM” value is -2.19%. The value for `CN1CCCN(Cc2cccc(Br)c2)CC1` was -0.127%; that for `COC(=O)c1cc(S(=O)(=O)NCCc2ccc(OC)c(OC)c2)cn1C` was 3.92%; that for `O=C(Cn1cnc2c(nnn2Cc2ccccc2F)c1=O)N1CCCCCC1` was -3.94%. In the case of `CCOC(=O)C1=CN(C(C)C)C=C(C(=O)OCC)C1c1ccc(O)c(OCC)c1`, the “% Inhibition @ 10 uM” value is -6.93%. With `O=C(NCc1noc2ccccc12)Nc1nc2ccccc2s1`, the “% Inhibition @ 10 uM” value is listed as -5.57%. As to `Cc1nc(Cl)c(C(=O)N2CCC(C)CC2)c(C)c1Cl`, the “% Inhibition @ 10 uM” value was 3.21%. The value for `CCSc1ncc(Cl)c(C(=O)Nc2nc(C)c(C(=O)OCC(C)C)s2)n1` was -4.64%; that for `O=C(NC(=O)c1ccc(Cl)cc1)OC1CCCCC1` was 1.86%.

Consider `O=C1c2ccccc2-c2ncnc3c(Br)cc(Br)c1c23`, for which the “% Inhibition @ 10 uM” value is recorded as -2.03%. With `Clc1cccc(-c2nc(N3CCCC3)nc3c2COc2ccccc2-3)c1` the figure was 3.92%; with `CCCNC1=N/C(=C\c2ccccc2)C(=O)N1c1ccccc1`, -3.39%. Consider `CCCCN(CCCC)CC(=O)Nc1c2c(nc3ccccc13)CCC2`, for which the “% Inhibition @ 10 uM” value is listed as -1.42%. Take `COc1ccc2[nH]c(C)c(CCNC(=O)c3cc(S(=O)(=O)N(C)C)c(Cl)cc3Cl)c2c1`: the “% Inhibition @ 10 uM” value was -4.35%. With `Cn1c2ccccc2c2cnn(CC(=O)N3CCN(Cc4ccccc4)CC3)c(=O)c21` the figure was -1.92%.

Turning to `CN1CCN(C(=S)NC(=O)c2ccc(Br)cc2)CC1`, the “% Inhibition @ 10 uM” value was -8.99%. As to `COC(=O)[C@@H]1CO[C@@H](C(=O)O[C@@H]2C[C@H](C)CC[C@H]2C(C)C)S1`, the “% Inhibition @ 10 uM” value amounted to 2.65%. For `O=C(Cc1ccccc1)NC1CCN(Cc2ccccc2)CC1`, the “% Inhibition @ 10 uM” value came out at 0.343%. With `CCc1ccc(-c2cc3c(=O)n(CC(=O)NCCC4=CCCCC4)nc(C)n3n2)cc1`, the “% Inhibition @ 10 uM” value is listed as -2.85%. With `CCc1ccc2ncc(C(=O)c3cccc(OC)c3)c(O)c2c1` the figure was -4.23%. As for `O=C(C1CCCN(c2ncnc3c2nc2n3CCCCC2)C1)N1CC=C(c2ccccc2)CC1` (centres unmarked), the “% Inhibition @ 10 uM” value turned out to be 10.1%. For the molecule `CN1C2CCC1CC(N(CCc1ccccc1)C(=O)c1ccc(F)cc1)C2` (centres unmarked), the “% Inhibition @ 10 uM” value is -4.3%. As to `Cc1cc(C)cc(Oc2nc3ccccn3c(=O)c2/C=C(\C#N)C(=O)N2CCOCC2)c1`, the “% Inhibition @ 10 uM” value stood at 0.315%. On to `CCOC(=O)c1c(C)nc(S)c(C#N)c1-c1ccccc1`, for which the “% Inhibition @ 10 uM” value was determined as 57.1%. Turning to `CSc1ccccc1NC(=O)c1cc2n(n1)C(C(F)(F)F)CC(c1ccc3c(c1)OCO3)N2` (centres unmarked), the “% Inhibition @ 10 uM” value is reported as -2.64%. For the molecule `CC(=O)Nc1ccc(S(=O)(=O)Nc2ccc(Br)c(Cl)c2)cc1`, the “% Inhibition @ 10 uM” value is on record as -4.7%. For the molecule `O=C(NCc1ccccc1)c1coc(-c2ccccc2)n1`, the “% Inhibition @ 10 uM” value is listed as -2.65%. `Cc1ccc(Cn2nnc3c(=O)n(Cc4c(F)cccc4Cl)cnc32)cc1`: the “% Inhibition @ 10 uM” value is recorded as -3.94%.

With `CCN(CC)CCCNC(=O)c1cnn2c(C(F)(F)F)cc(-c3ccc(C)cc3)nc12`, the “% Inhibition @ 10 uM” value amounted to 35.5%. With `N#Cc1nc(/C=C/c2ccc(F)cc2)oc1NC1CC1` the figure was -2.57%. Consider `COc1ccc(-c2c(C)nn3c(N4CCc5ccccc5C4)cc(C)nc23)cc1OC`, for which the “% Inhibition @ 10 uM” value was -0.138%. Take `CCC1CCCCN1Cc1nc2c(c(=O)n(C)c(=O)n2C)n1CCCO` (centres unmarked): the “% Inhibition @ 10 uM” value is listed as -1.43%.

The values above are taken from publication PMC6919601, “Identification of Plasmodium dipeptidyl aminopeptidase allosteric inhibitors by high throughput screening” (PLoS ONE, 2019).
